According to US10729782B2, “Antibody-drug conjugate produced by binding through linker having hydrophilic structure” (DAIICHI SANKYO COMPANY, LIMITED, priority 2012, dated 2020):

Test system: human melanoma line A375 cells transplanted in mice
Assay: Antitumor test (4)
Assay type: in vivo, mouse
Conditions: A375 xenograft in nude mice, 3 and 10 mg/kg intravenous; for effect on tumor volume / tumor growth inhibitory effect: Day 14 (qd×1), FIG. 20; for notable signs such as weight loss in treated mice: qd×1
Description: Mouse: 5- to 6-week-old female BALB/c nude mice (Charles River Laboratories Japan, Inc.) were acclimatized for 4 to 7 days under SPF conditions before use in the experiment. The mice were fed with sterilized solid feed (FR-2, Funabashi Farms Co., Ltd) and given sterilized tap water (prepared by the addition of 5 to 15 ppm sodium hypochlorite solution).
Assay and calculation expression: In all studies, the major axis and minor axis of tumor were measured twice a week by using an electronic digital caliper (CD-15C, Mitutoyo Corp.), and the tumor volume (mm^3) was calculated. The calculation expression is as shown below. Tumor volume (mm^3)=½×Major axis (mm)×[Minor axis (mm)]^2
Human melanoma line A375 cells were purchased from ATCC (American Type Culture Collection). 8×10^6 cells suspended in physiological saline were subcutaneously transplanted to the right abdomen of each female nude mouse (Day 0), and the mice were randomly grouped at Day 14. The antibody-drug conjugates (3), (20), and (30) were each intravenously administered at each dose (3 and 10 mg/kg) to the tail of each mouse at Day 14 in a schedule of qd×1.
In the drawing, the line with open rhombuses depicts the results about untreated tumor, the dotted line with filled squares depicts the effect of the antibody-drug conjugate (3) administered at 3 mg/kg, the solid line with filled squares depicts the effect of the antibody-drug conjugate (3) administered at 10 mg/kg, the dotted line with filled triangles depicts the effect of the antibody-drug conjugate (20) administered at 3 mg/kg, the solid line with filled triangles depicts the effect of the antibody-drug conjugate (20) administered at 10 mg/kg, the dotted line with filled circles depicts the effect of the antibody-drug conjugate (30) administered at 3 mg/kg, and the solid line with filled circles depicts the effect of the antibody-drug conjugate (30) administered at 10 mg/kg.

| Molecule | effect on tumor volume | tumor growth inhibitory effect | notable signs such as weight loss in treated mice |
| --- | --- | --- | --- |
| antibody-drug conjugate (3): M30-H1-L4P antibody conjugated with the compound of Process 5 of Example 2; average 3.4 drugs per antibody (conjugate) heavy: QVQLVQSGAEVKKPGSSVKVSCKASGYTFTNYVMHWVRQAPGQGLEWMGYINPYNDDVKYNEKFKGRVTITADESTSTAYMELSSLRSEDTAVYYCARWGYYGSPLYYFDYWGQGTLVTVSSASTKGPSVFPLAPSSKSTSGGTAALGCLVKDYFPEPVTVSWNSGALTSGVHTFPAVLQSSGLYSLSSVVTVPSSSLGTQTYICNVNHKPSNTKVDKRV[omitted - human IgG1 Fc] light: EIVLTQSPATLSLSPGERATLSCRASSRLIYMHWYQQKPGQAPRPLIYATSNLASGIPARFSGSGSGTDFTLTISSLEPEDFAVYYCQQWNSNPPTFGQGTKVEIKRTVAAPSVFIFPPSDEQLKSGTASVVCLLNNFYPREAKVQWKVDNALQSGNSQESVTEQDSKDSTYSLSSTLTLSKADYEKHKVYACEVTHQGLSSPVTKSFNRGEC | remarkably decreased the tumor volume | tumor growth inhibitory effect in a dose-dependent manner | free from notable signs such as weight loss |
| antibody-drug conjugate (30): M30-H1-L4P antibody conjugated with the compound of Process 4 of Example 32 (KGGFG-(NH-DX)); average 3.2 drugs per antibody (conjugate) heavy: QVQLVQSGAEVKKPGSSVKVSCKASGYTFTNYVMHWVRQAPGQGLEWMGYINPYNDDVKYNEKFKGRVTITADESTSTAYMELSSLRSEDTAVYYCARWGYYGSPLYYFDYWGQGTLVTVSSASTKGPSVFPLAPSSKSTSGGTAALGCLVKDYFPEPVTVSWNSGALTSGVHTFPAVLQSSGLYSLSSVVTVPSSSLGTQTYICNVNHKPSNTKVDKRV[omitted - human IgG1 Fc] light: EIVLTQSPATLSLSPGERATLSCRASSRLIYMHWYQQKPGQAPRPLIYATSNLASGIPARFSGSGSGTDFTLTISSLEPEDFAVYYCQQWNSNPPTFGQGTKVEIKRTVAAPSVFIFPPSDEQLKSGTASVVCLLNNFYPREAKVQWKVDNALQSGNSQESVTEQDSKDSTYSLSSTLTLSKADYEKHKVYACEVTHQGLSSPVTKSFNRGEC | remarkably decreased the tumor volume | tumor growth inhibitory effect in a dose-dependent manner | free from notable signs such as weight loss |
| antibody-drug conjugate (20): M30-H1-L4P antibody conjugated with the compound of Process 4 of Example 20; average 3.8 drugs per antibody (conjugate) heavy: QVQLVQSGAEVKKPGSSVKVSCKASGYTFTNYVMHWVRQAPGQGLEWMGYINPYNDDVKYNEKFKGRVTITADESTSTAYMELSSLRSEDTAVYYCARWGYYGSPLYYFDYWGQGTLVTVSSASTKGPSVFPLAPSSKSTSGGTAALGCLVKDYFPEPVTVSWNSGALTSGVHTFPAVLQSSGLYSLSSVVTVPSSSLGTQTYICNVNHKPSNTKVDKRV[omitted - human IgG1 Fc] light: EIVLTQSPATLSLSPGERATLSCRASSRLIYMHWYQQKPGQAPRPLIYATSNLASGIPARFSGSGSGTDFTLTISSLEPEDFAVYYCQQWNSNPPTFGQGTKVEIKRTVAAPSVFIFPPSDEQLKSGTASVVCLLNNFYPREAKVQWKVDNALQSGNSQESVTEQDSKDSTYSLSSTLTLSKADYEKHKVYACEVTHQGLSSPVTKSFNRGEC | remarkably decreased the tumor volume | tumor growth inhibitory effect in a dose-dependent manner | free from notable signs such as weight loss |
